Measurements as given in PubChem BioAssay AID504832 (National Center for Advancing Translational Sciences (NCATS), 2011).
The whole screen tested about 310,000 compounds, of which about 18,000 (5.8%) were called active. Inconclusive means that the source gave no clear call. Such entries were picked first, then a sample of the others. Calls follow the shape of the dose curve; as a rule, active = well fitted inhibition curve with a large enough effect; inconclusive = small, poorly fitted or top-dose-only effect, or another doubt; inactive = no such curve, though single readings can be large or run the other way. Potencies of inconclusive entries are left out as doubtful fits.

Test: Primary qHTS for delayed death inhibitors of the malarial parasite plastid, 48 hour incubation
Conditions: P. falciparum luciferase growth in erythrocytes; series mostly up to 28.7 µM; activity change, negative = inhibition: at the top concentration
How it was run: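 In quantitative HTS format, infected erythrocytes bearing luciferase-reporter parasites were treated for a single generation at 37 C. Luminescence after adding detection reagent served as the growth measure.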
% is scaled to controls: 0 for no effect and ±100 for the full control effect; potency is read from the fitted curve at half-maximal effect; tags tell the direction and shape of the fitted curve.

Structure (SMILES)	Potency	activity change, negative = inhibition
Cc1ccc(OCC(=O)NNC(=S)NC(=O)C2CC2)c(C)c1	inconclusive [inhibitor, partial curve, poor fit]	–
NC1=NC(=O)/C(=C\c2ccco2)S1	–	inactive: 0.194%
CCOc1ccc(Cl)cc1CNCCc1ccc(F)cc1	inconclusive [inhibitor, single point]	–
Cc1ccc(C)c(NC(=O)Cc2nc(CCl)cs2)c1	active: 14.7 µM	–
Cc1nc(-c2ccccc2)sc1C(=O)/C=C/c1ccc(Cl)cc1	inconclusive [inhibitor, partial curve, poor fit]	–
O=C1c2c(O)cccc2C(C2OC(CO)[C@@H](O)[C@H](O)[C@H]2O)c2cc(CO)cc(O)c21 (some centres not stated)	–	inactive: 38.1%
Cc1cc(C(=O)OCC(=O)N2c3ccccc3CC2C)c(C)o1 (configuration not stated)	inconclusive [inhibitor, single point]	–
CC(C)c1ccc(NC(=O)CSc2nc(=O)n(CCN3CCOCC3)c3c2CCC3)cc1	inconclusive [inhibitor, single point]	–
O=C(c1cc2nc(-c3ccccc3)cc(C(F)(F)F)n2n1)N1CCN2CCCC2C1 (configuration not stated)	inconclusive [inhibitor, single point]	–
CCOC(=O)/C=c1\s/c(=C(\C#N)C(N)=O)n(-c2ccccc2)c1=O	–	inactive: -1.33%
Cc1ccc2cc3c(NC(=O)c4ccco4)nn(C)c3nc2c1	inconclusive [inhibitor, partial curve, poor fit]	–
CCc1ccc(-c2cc(C)no2)cc1S(=O)(=O)NC(C)Cc1ccco1 (configuration not stated)	–	inactive: -23.7%
CC1CC(C)CN(C(=S)NC2CCCCC2)C1 (configuration not stated)	inconclusive [inhibitor, single point]	–
CC(=O)C1=C(O)C(=O)N(c2cc(C(C)(C)C)on2)C1c1ccc(C(C)C)cc1 (configuration not stated)	–	inactive: -16.2%
CC(C)C(=O)N1CCN(c2ccccc2NC(=O)c2cccc3ccccc23)CC1	inconclusive [inhibitor, single point]	–
CC(C)Sc1nc(N2CCCC2)c2c(c1C#N)CC(C)(C)OC2	inconclusive [inhibitor, single point]	–
C#CCOCCOCCOCCNc1nc(N2CCN(C(=O)[C@H](Cc3cc4ccccc4[nH]3)n3cc(C(N)CC(C)C)nn3)CC2)nc(N2CCN(C(=O)[C@H](CCC(=O)O)n3cc(C(N)[C@H](C)CC)nn3)CC2)n1 (some centres not stated)	–	inactive: 8.31%
Cc1cc(C)c2cc(C(=O)N3CCC(N4CCCCC4)CC3)[nH]c2c1	inconclusive [inhibitor, single point]	–
CN(C)C(CNC(=O)c1ccc(Cl)c(S(=O)(=O)N2CCCCCC2)c1)c1ccccc1 (configuration not stated)	active: 5.22 µM	–
CC1CC(C)CN(S(=O)(=O)c2ccc(NC(=O)CN3C(=O)NC(C)(c4ccccc4)C3=O)cc2)C1 (configuration not stated)	inconclusive [inhibitor, partial curve, poor fit]	–
O=C(Nc1cccc(S(=O)(=O)N2CCCCC2)c1)C1CCC1	inconclusive [inhibitor, single point]	–
Cc1cc(C)c(CSc2ncc(-c3ccc([N+](=O)[O-])cc3)[nH]2)c(C)c1	inconclusive [inhibitor, single point]	–
Cc1cccc(NC(=O)COC(=O)Cc2c[nH]c3ccccc23)c1C	inconclusive [inhibitor, partial curve, poor fit]	–

Structure (SMILES)	Potency	activity change, negative = inhibition
Cc1ccc(C2(c3noc(CN4CCC(C(=O)N5CCOCC5)CC4)n3)CCCC2)cc1	inconclusive [inhibitor, partial curve, poor fit]	–
CCc1cc(C(=O)c2ccc(OC)cc2)c(NC(=O)CN2CCCC2)s1	inconclusive [inhibitor, full curve]	–
CCN(C(=O)Cn1cc(C(=O)C(=O)N2CCOCC2)c2ccccc21)c1ccccc1	–	inactive: 14.4%
COc1ccc(C2=CC(c3cccc(OC)c3)n3nnnc3N2)cc1 (configuration not stated)	inconclusive [inhibitor, single point]	–
N#Cc1ccc(C(=O)Nc2cc(C3CC3)nn2-c2ccccc2)cc1	inconclusive [inhibitor, single point]	–
Cn1c(SCc2cccc(Br)c2)nc2ccccc2c1=O	–	inactive: -4.66%
COC(=O)c1cc2ccsc2n1Cc1cc(=O)n2ccccc2n1	inconclusive [inhibitor, partial curve, poor fit]	–
COc1ccccc1-c1coc2c(CN3CCC(C)CC3)c(O)ccc2c1=O	active: 11.7 µM	–
Fc1cccc(Nc2nc(N3CCOCC3)nc(N3CCOCC3)n2)c1	inconclusive [inhibitor, full curve, poor fit]	–
O=C(O)c1cccc(S(=O)(=O)Nc2cccc(S(=O)(=O)N3CCCC3)c2)c1	–	inactive: 4.18%
COc1ccc(N2C(=O)/C(=C/c3ccc([N+](=O)[O-])cc3)N=C2C)c(OC)c1	–	inactive: 24.7%
C=CCc1c(C)[nH]c2ccc(C)cc2c1=O	active: 1.47 µM	–
COCCC(=O)N(Cc1ccc2c(c1)OCO2)C(C(=O)NC1CCCCC1)c1ccncc1 (configuration not stated)	–	inactive: -2.44%
Cc1ccc(SCc2c(C(=O)N/N=C/c3cccnc3)nnn2-c2nonc2N)cc1	–	inactive: 9.31%
COc1cc2[nH]c(=O)n(CCCC(=O)NC3CCCCC3)c(=O)c2cc1OC	inconclusive [inhibitor, partial curve, poor fit]	–
CCC1Oc2ccc(C)cc2N(CC(=O)N(Cc2ccc(C)o2)C2CC(C)(C)NC(C)(C)C2)C1=O (configuration not stated)	inconclusive [inhibitor, single point]	–
COc1ccc(NC(=O)CN(C)C(=O)c2ccc3[nH]c4c(c3c2)CC(C)CC4)cc1 (configuration not stated)	–	inactive: 6.28%
Cc1cc(C)cc(Oc2nc(C(F)(F)F)nc3ccccc23)c1	inconclusive [inhibitor, partial curve, poor fit]	–
COc1cccc(Nc2ncccc2C(=O)NCc2ccccc2)c1	inconclusive [inhibitor, single point]	–
CCOC(=O)[C@@H]1[C@H]2COc3ccccc3[C@H]2N2C(=O)N(c3ccc(C(F)(F)F)cc3)C(=O)[C@]12C	active: 10.4 µM	–
Cc1cccc(OCC(=O)N/N=C2/SCC(=O)N2Cc2ccco2)c1	–	inactive: -9.54%
COc1cccc(NC(=S)N(CCc2c(C)[nH]c3ccccc23)Cc2ccco2)c1	inconclusive [inhibitor, partial curve, poor fit]	–
CCOC(=O)c1c(C)[nH]c(C(=O)OCC(=O)Nc2sc(C(=O)N(C)C)c(C)c2C(=O)OCC)c1C	inconclusive [inhibitor, single point]	–

Structure (SMILES)	Potency	activity change, negative = inhibition
Cc1ccc(S(=O)(=O)N2CCOCC2)cc1NC(=O)COC(=O)c1n[nH]c(=O)c2ccccc12	–	inactive: 3.38%
CN(C)CCCN=c1cc(-c2ccccc2)oc2ccc(Cl)cc12	inconclusive [inhibitor, partial curve]	–
Cc1cccc(N/C(N)=N/c2nc(C)c(Cc3ccccc3)c(=O)[nH]2)c1	inconclusive [inhibitor, single point]	–
Cc1ccccc1CN(C)C(=O)CNC(=O)c1ccc2ccccc2c1	–	inactive: -37.1%
COc1ccccc1CCC(=O)N1CCC(n2nccc2NC(=O)C2CCOC2)CC1 (configuration not stated)	–	inactive: -0.744%
CC(C)(C)c1nc(SCC(=O)Nc2nc3c(s2)CCCC3)c2ccccc2n1	active: 1.17 µM	–
COc1cccc(OC)c1OCCCCN1CCCC1	–	inactive: 76.7%
CCc1ccc(NC(=O)C2CCN(c3c(N4CCCC4)c(=O)c3=O)CC2)cc1	–	inactive: 0.723%
CSCC[C@H](NC(=O)OC(C)(C)C)C(=O)NCC1CCC(C(=O)N[C@@H](Cc2ccccc2)C(=O)O)CC1 (some centres not stated)	–	inactive: 8.73%
COc1cc(C(=O)OCC(=O)c2c[nH]c3ccccc23)ccc1OCC(=O)N1CCOCC1	inconclusive [inhibitor, single point]	–
COc1ccccc1N(C(=O)c1ccco1)C(C(=O)NC1CCCC1)c1ccc(N2CCOCC2)cc1 (configuration not stated)	inconclusive [inhibitor, partial curve, poor fit]	–
COc1cccc2cc(C(=O)N3CCN(C(=O)c4ccco4)CC3)c(=O)oc12	–	inactive: 7.25%
Cc1ccccc1S(=O)(=O)N1[C@@H](c2ccccc2)C(C(=O)O)=CC[C@H]1c1ccc(Cl)cc1	inconclusive [inhibitor, single point]	–
COc1ccc(N2CC(O)(c3ccc(F)cc3)[N+]3=C2CCCC3)cc1 (configuration not stated)	inconclusive [inhibitor, partial curve, poor fit]	–
CCCCc1cc(=O)oc2cc(OCC(=O)N[C@@H](Cc3ccccc3)C(=O)O)ccc12	inconclusive [inhibitor, single point]	–
COc1cc(/C=C/c2ccc3cccc(O)c3n2)cc(OC)c1OC	inconclusive [inhibitor, partial curve, poor fit]	–
Cc1noc(NS(=O)(=O)c2ccc(NC(=O)c3cc(-c4ccccc4Cl)nc4ccccc34)cc2)c1C	–	inactive: 0%
O=C(c1cccs1)N1CCC(c2nc3c(nnn3Cc3ccccc3)c(=O)[nH]2)CC1	inconclusive [inhibitor, partial curve]	–
CCc1noc(C)c1C(=O)N1CCN(S(=O)(=O)c2ccc(Cl)s2)CC1	inconclusive [inhibitor, single point]	–
CCC[N+]12CCC(CC1)C(=C(c1ccccc1)c1ccccc1)C2	active: 1.31 µM	–
CCOC(=O)N1CCC(NC(=O)c2ccc3nc4ccccc4c(=O)n3c2)CC1	inconclusive [inhibitor, partial curve, poor fit]	–
